The list shows a part of the results.
test system: PfHDP1 homeodomain (GST-tagged); assay: gcPBM binding intensity (ln(normalized median fluorescence intensity)); higher = stronger DNA binding
Outline: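 After 1 h on an Agilent 4 × 180k array of primer-extended double-stranded 36-bp intergenic genomic probes and negative controls, bound GST-tagged P. falciparum DNA-binding domains were detected with Alexa488 anti-GST antibody and scanned at 488 nm. The domains had been expressed in E. coli, and binding took place in 1× PBS with 1% milk, 0.2 mg/ml BSA, 0.5% salmon testes DNA and 0.03% Triton X-100. Binding intensity is the highest Masliner-normalised natural-log median intensity across replicate spots of either probe orientation.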

Going from “ACAATATGCAAAAAGTGTACACATTCATTTATATAA [XGTACX_site1061]” to “ATAAAAAAAGATGAACGTACATATATTTTAAAAATC [XGTACX_site5950]”, the “gcPBM binding intensity (ln)” value falls from 8.53 to 6.45.

Going from GTAAATATTTGTTGGGTGCTATCAATTATTTCAAAG to “ATATAAAATATGTATGAGGAATAAAATTAAAAAAAA [XGTACX_negctrl_site173]”, the “gcPBM binding intensity (ln)” value rises from 6.29 to 6.34.

Going from “TTTTTTTTGAAGAATACATGCATATTTTCTATATTC [TGCATGCA_site43]” to “TATATAAACATCGGTAGTACACACATTCATGTATTT [XGTACX_site6443]”, the “gcPBM binding intensity (ln)” value rises from 6.36 to 6.51.

First: GGATCATTTTTAAAGGAACACACAAAAAAAATTATA [CACACA_site8381]
Second: ATTTTATATATGTGTTGTACGGTGAACATTTTGATA [XGTACX_site6538]
The “gcPBM binding intensity (ln)” value of the first is lower: 6.61 for the first, 6.71 for the second.

First: ATATGTATAAATATAAATATATATATATATATATAT [CACACA_negctrl_site705]
Second: ACGTTAATATCTACAAGTACCCACATTAACAGGAAA [XGTACX_site2616]
The “gcPBM binding intensity (ln)” value of the first is higher: 9.29 for the first, 6.57 for the second.

Compared with “ATGATATGGATAAATACACACAATATAATAATGGGT [CACACA_site4905]”, “ATATCTTATATTATCACACACACACCCACAAAACAG [CACACA_site1464]” is higher in “gcPBM binding intensity (ln)” value: 6.53 for the first, 7.73 for the second.

Going from “AAAAAAAACAGACACACACACATTCAATATAAAACA [CACACA_site41]” to “TAATTTGTTATTTATTGTACAAACATTATATGTTAA [XGTACX_site6637]”, the “gcPBM binding intensity (ln)” value falls from 6.66 to 6.29.

First: ATAACTAATATGAAATGTACCCATCAAAGTGTGCAT [XGTACX_site4463]
Second: TACTACACACATTCATGTACTTGATAAATTAATGAT [XGTACX_site6444]
The “gcPBM binding intensity (ln)” value of the first is higher: 6.95 for the first, 6.43 for the second.

Compared with “AAAATTAAAATACGTACACACCTTATCTTTTTGGCT [CACACA_site4311]”, “AGAACAATTCTGTGGTGTACCAAAAAAAATTTAATT [XGTACX_site8082]” is higher in “gcPBM binding intensity (ln)” value: 6.24 for the first, 6.45 for the second.

First: ATATTTAAATTTTGCACACGCATATGAAATTAGGAC [CACACA_site1035]
Second: AAAATAAATAAATATACACACCATATTTATATTTTT [CACACA_site7361]
The “gcPBM binding intensity (ln)” value of the first is higher: 10.5 for the first, 6.44 for the second.

First: TAAATGAATTTTACTATACACACGTATACATTTGTA [CACACA_site1210]
Second: ATATATAATTATTGAAGTACTTGTTCATAAAATGGT [XGTACX_site5656]
The “gcPBM binding intensity (ln)” value of the first is lower: 6.42 for the first, 6.53 for the second.

Going from “AAAATAAAATGAAAACGTACATGATAAATTTTAATT [XGTACX_site4199]” to “TATATGAGCATAAAGACACACAAATAAAACCAAACA [CACACA_site3856]”, the “gcPBM binding intensity (ln)” value rises from 6.46 to 8.25.

First: ATATTATAAATATAATGTACGTTTTAATTTCATGTT [XGTACX_site3557]
Second: GTGTTAAATTTTTGAACATGCAAGTTTTATTATTGA [TGCATGCA_site478]
The “gcPBM binding intensity (ln)” value of the first is higher: 6.24 for the first, 6.19 for the second.

Going from “AATGCAAAGGTGAAAGAACACACAAAAAAAAAAAAA [CACACA_site9333]” to “CATAGACACGAACATACACACGGACATACATACGGA [CACACA_site8101]”, the “gcPBM binding intensity (ln)” value rises from 6.27 to 6.62.

Going from “GTAACAAATTAATAGTGTACATATTTTAAAAAAATA [XGTACX_site7150]” to CACATAAAAATTGTGTTGCACTTTTATTCTTATATC, the “gcPBM binding intensity (ln)” value rises from 6.42 to 7.27.

First: CTATGAATAGGAAAAAGTACTAAACCTTTATATATA [XGTACX_site5022]
Second: ATTTTGCCTGACCCATGTACATATTATTTTTTGCAT [XGTACX_site2258]
The “gcPBM binding intensity (ln)” value of the first is lower: 6.28 for the first, 7.57 for the second.

First: AACTTACTTGGACATACACACATATATATATATATA [CACACA_site2978]
Second: TTTATATATTTTAGGTGTACATAAATTTTTATATAT [XGTACX_site5597]
The “gcPBM binding intensity (ln)” value of the first is higher: 9.41 for the first, 6.32 for the second.

Compared with “TAACTTAATATTAATGCACACAATTTATATATATAT [CACACA_site3903]”, “TCAAATATTCATAAATGTACATTTATTTTTCTCCTT [XGTACX_site5827]” is lower in “gcPBM binding intensity (ln)” value: 10.4 for the first, 6.49 for the second.

Going from “AGTAGAATATCCCCTACACACCCAAATAATTTACAA [CACACA_site8339]” to “GAAACATACATTTTTTGTCCGTAAGTATTATAATAA [XGTACX_site3273]”, the “gcPBM binding intensity (ln)” value falls from 7.27 to 6.38.

First: ATACATCAAGGACACACACACACACCCACACCCACA [CACACA_site8013]
Second: CTATATAAAAAAATTGCACACATAAATATATACATA [CACACA_site8325]
The “gcPBM binding intensity (ln)” value of the first is lower: 6.71 for the first, 9.87 for the second.

First: ATAAATCCCAAAACCTTGCAAGACAACGTTTGATCA [CACACA_negctrl_site1327]
Second: TGTAGAAGAACCCATGCATGCAGTATGAAAAAAAAA [TGCATGCA_site907]
The “gcPBM binding intensity (ln)” value of the first is lower: 6.57 for the first, 6.73 for the second.

First: AAAAAAAGAAAAAAACGTACATGAAAATTTTTTGTT [XGTACX_site5135]
Second: ATCTCTTACATATTCACACACATATAAATAACTACA [CACACA_site6816]
The “gcPBM binding intensity (ln)” value of the first is lower: 6.88 for the first, 7.4 for the second.

First: ATTAATAATTATTATGGTACACATGTAACTACTCTC [XGTACX_site198]
Second: ATATGATAGTTTATATGTACATAAATAAATACATAC [XGTACX_site2917]
The “gcPBM binding intensity (ln)” value of the first is higher: 6.69 for the first, 6.4 for the second.

First: AAAGAAAAAAAATAATGTACATATGTATTTGAGAAA [XGTACX_site3571]
Second: AAAAAAATAAAACACATACATATATGTATATATATA [GTGCAC_negctrl_site390]
The “gcPBM binding intensity (ln)” value of the first is lower: 6.92 for the first, 7.81 for the second.

Compared with TTCTAAAATTATATAGTGCAATTATTTTATTTTTCT, TAAATATATATATAAGTGCATTATATATATATATAA is lower in “gcPBM binding intensity (ln)” value: 9.71 for the first, 9.53 for the second.

Going from “TACTTTCACATTAAATGTACGTATAGTTTCATTCTT [XGTACX_site8528]” to “ATATTAAAAATATATACACACATATATATAAATATA [CACACA_site2257]”, the “gcPBM binding intensity (ln)” value falls from 6.73 to 6.44.

First: ATAAATATGGAGCACACACACATAAACATACAGATA [CACACA_site4395]
Second: TATATTTAAGTACATAAATAAGCCCATTTACATACA [CACACA_negctrl_site1224]
The “gcPBM binding intensity (ln)” value of the first is higher: 7.22 for the first, 6.25 for the second.

Compared with TTTGGAGAATTCATAGTGCATTTATTTATTGTTAAT, “ACGTTAGGCTTATTTGCACACTTGTATTATAATTTT [CACACA_site1317]” is higher in “gcPBM binding intensity (ln)” value: 7.83 for the first, 10.3 for the second.

Compared with “AAAAATATGAAAGTAACTAAGTTGTTATTGATAACA [CACACA_negctrl_site1608]”, “ATATTATCACAAGGTGGTACACAAAAAAAAAAAAAA [XGTACX_site8224]” is higher in “gcPBM binding intensity (ln)” value: 6.1 for the first, 6.4 for the second.

Source: the supplement of paper PMC11417369
